The other results are listed elsewhere or left out.
Tests used:
Assay in all cases: glycan array binding signal (z-score within array); higher = stronger binding
Settings in all cases: glycan notation: IUPAC condensed, linker removed
[1] = molecular target: GlcNAc(b1-4)GlcNAc(b1-4)GlcNAc(b1-4)GlcNAc(b1-4)GlcNAc
In short: (§1)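 From the Consortium for Functional Glycomics database, 3228 arrays were curated, keeping only those whose protein sequence was available. Binding is given as a within-array Z-score averaged across arrays sharing a protein sequence and across linkers. Negative Z-scores can be read as non-binding.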

[2] = molecular target: GlcNAc(b1-4)GlcNAc(b1-4)GlcNAc(b1-4)GlcNAc(b1-4)GlcNAc(b1-4)GlcNAc
In short: as §1

[3] = molecular target: GlcNAc(b1-4)[GlcNAc(b1-6)]GalNAc
In short: as §1

[4] = molecular target: GlcNAc(b1-6)Gal(b1-4)GlcNAc
In short: as §1

GlcNAc(b1-6)GalNAc = molecular target: GlcNAc(b1-6)GalNAc
In short: as §1

GlcNAc3Prop(b1-4)GlcNAc = molecular target: GlcNAc3Prop(b1-4)GlcNAc
In short: as §1

[5] = molecular target: GlcNAc6S(b1-3)Gal(b1-4)GlcNAc
In short: as §1

Kdn(a2-3)Gal(b1-3)GalNAc = molecular target: Kdn(a2-3)Gal(b1-3)GalNAc
In short: as §1

Kdn(a2-3)Gal(b1-3)GlcNAc = molecular target: Kdn(a2-3)Gal(b1-3)GlcNAc
In short: as §1

Kdn(a2-3)Gal(b1-4)Glc = molecular target: Kdn(a2-3)Gal(b1-4)Glc
In short: as §1

Kdn(a2-3)Gal(b1-4)GlcNAc = molecular target: Kdn(a2-3)Gal(b1-4)GlcNAc
In short: as §1

[6] = molecular target: Kdn(a2-3)Gal(b1-4)[Fuc(a1-3)]GlcNAc
In short: as §1

Kdn(a2-6)Gal(b1-4)GlcNAc = molecular target: Kdn(a2-6)Gal(b1-4)GlcNAc
In short: as §1

[7] = molecular target: Man(a1-2)Man(a1-2)Man(a1-3)Man
In short: as §1

[8] = molecular target: Man(a1-2)Man(a1-2)Man(a1-6)[Man(a1-3)]Man
In short: as §1

Man(a1-2)Man(a1-3)Man = molecular target: Man(a1-2)Man(a1-3)Man
In short: as §1

[9] = molecular target: Man(a1-2)Man(a1-3)[Man(a1-2)Man(a1-6)]Man
In short: as §1

[10] = molecular target: Man(a1-2)Man(a1-3)[Man(a1-2)Man(a1-6)]Man(a1-6)[Man(a1-2)Man(a1-2)Man(a1-3)]Man
In short: as §1

[11] = molecular target: Man(a1-2)Man(a1-3)[Man(a1-2)Man(a1-6)]Man(a1-6)[Man(a1-2)Man(a1-2)Man(a1-3)]Man(b1-4)GlcNAc(b1-4)GlcNAc
In short: as §1

[12] = molecular target: Man(a1-2)Man(a1-3)[Man(a1-6)]Man(a1-6)[Man(a1-2)Man(a1-3)]Man(b1-4)GlcNAc(b1-4)GlcNAc
In short: as §1

[13] = molecular target: Man(a1-2)Man(a1-6)[Man(a1-3)]Man(a1-6)[Man(a1-2)Man(a1-2)Man(a1-3)]Man
In short: as §1

[14] = molecular target: Man(a1-2)Man(a1-6)[Man(a1-3)]Man(a1-6)[Man(a1-2)Man(a1-2)Man(a1-3)]Man(b1-4)GlcNAc(b1-4)GlcNAc
In short: as §1

Man(a1-3)[Man(a1-6)]Man = molecular target: Man(a1-3)[Man(a1-6)]Man
In short: as §1

[15] = molecular target: Man(a1-3)[Man(a1-6)]Man(a1-6)[Man(a1-2)Man(a1-3)]Man(b1-4)GlcNAc(b1-4)GlcNAc
In short: as §1

[16] = molecular target: Man(a1-3)[Man(a1-6)]Man(a1-6)[Man(a1-3)]Man
In short: as §1

[17] = molecular target: Man(a1-3)[Man(a1-6)]Man(a1-6)[Man(a1-3)]Man(b1-4)GlcNAc(b1-4)GlcNAc
In short: as §1

[18] = molecular target: Man(a1-3)[Man(a1-6)]Man(b1-4)GlcNAc(b1-4)GlcNAc
In short: as §1

[19] = molecular target: Man(a1-3)[Man(a1-6)]Man(b1-4)GlcNAc(b1-4)[Fuc(a1-6)]GlcNAc
In short: as §1

Man(a1-6)Man = molecular target: Man(a1-6)Man
In short: as §1

Man(b1-4)GlcNAc = molecular target: Man(b1-4)GlcNAc
In short: as §1

MurNAc(b1-4)GlcNAc = molecular target: MurNAc(b1-4)GlcNAc
In short: as §1

Neu5Ac(a2-3)Gal = molecular target: Neu5Ac(a2-3)Gal
In short: as §1

[20] = molecular target: Neu5Ac(a2-3)Gal(b1-3)GalNAc
In short: as §1

[21] = molecular target: Neu5Ac(a2-3)Gal(b1-3)GalNAc(b1-3)Gal(a1-4)Gal(b1-4)Glc
In short: as §1

[22] = molecular target: Neu5Ac(a2-3)Gal(b1-3)GalNAc(b1-3)Gal(b1-4)GlcNAc
In short: as §1

[23] = molecular target: Neu5Ac(a2-3)Gal(b1-3)GalNAc(b1-4)[Neu5Ac(a2-3)]Gal(b1-4)Glc
In short: as §1

[24] = molecular target: Neu5Ac(a2-3)Gal(b1-3)GalNAc(b1-4)[Neu5Ac(a2-8)Neu5Ac(a2-3)]Gal(b1-4)Glc
In short: as §1

B1: MAL-II (Maackia amurensis), P93248 (protein)
chain: ATSNSKPTQVLLATFLTFFFLLLNNVNSSDELSFTINNFVPNEADLLFQGEASVSSTGVLQLTRVENGQPQQYSVGRALYAAPVRIWDNTTGSVASFSTSFTFVVKAPNPTITSDGLAFFLAPPDSQIPSGRVSKYLGLFNNSNSDSSNQIVAVEFDTYFGHSYDPWDPNYRHIGIDVNGIESIKTVQWDWINGGVAFATITYLAPNKTLIASLVYPSNQTSFIVAASVDLKEILPEWVRVGFSAATGYPTQVETHDVLSWSFTSTLEANSDAATENNVHIARYTA
glycan array binding signal (z-score) [1]: -0.044 | glycan array binding signal (z-score) [2]: -0.147 | glycan array binding signal (z-score) [3]: -0.238 | glycan array binding signal (z-score) [4]: -0.209 | glycan array binding signal (z-score) (GlcNAc(b1-6)GalNAc): -0.213 | glycan array binding signal (z-score) (GlcNAc3Prop(b1-4)GlcNAc): -0.219 | glycan array binding signal (z-score) [5]: -0.167 | glycan array binding signal (z-score) (Kdn(a2-3)Gal(b1-3)GalNAc): 3.27 | glycan array binding signal (z-score) (Kdn(a2-3)Gal(b1-3)GlcNAc): -0.212 | glycan array binding signal (z-score) (Kdn(a2-3)Gal(b1-4)Glc): -0.171 | glycan array binding signal (z-score) (Kdn(a2-3)Gal(b1-4)GlcNAc): -0.166 | glycan array binding signal (z-score) [6]: 0.01 | glycan array binding signal (z-score) (Kdn(a2-6)Gal(b1-4)GlcNAc): -0.005 | glycan array binding signal (z-score) [7]: -0.202 | glycan array binding signal (z-score) [8]: -0.1 | glycan array binding signal (z-score) (Man(a1-2)Man(a1-3)Man): -0.138 | glycan array binding signal (z-score) [9]: -0.221 | glycan array binding signal (z-score) [10]: -0.164 | glycan array binding signal (z-score) [11]: -0.125 | glycan array binding signal (z-score) [12]: -0.217 | glycan array binding signal (z-score) [13]: -0.175 | glycan array binding signal (z-score) [14]: -0.186 | glycan array binding signal (z-score) (Man(a1-3)[Man(a1-6)]Man): -0.124 | glycan array binding signal (z-score) [15]: -0.082 | glycan array binding signal (z-score) [16]: -0.133 | glycan array binding signal (z-score) [17]: -0.107 | glycan array binding signal (z-score) [18]: -0.165 | glycan array binding signal (z-score) [19]: -0.337 | glycan array binding signal (z-score) (Man(a1-6)Man): -0.203 | glycan array binding signal (z-score) (Man(b1-4)GlcNAc): -0.19 | glycan array binding signal (z-score) (MurNAc(b1-4)GlcNAc): -0.194 | glycan array binding signal (z-score) (Neu5Ac(a2-3)Gal): -0.204 | glycan array binding signal (z-score) [20]: 3.54 | glycan array binding signal (z-score) [21]: -0.099 | glycan array binding signal (z-score) [22]: -0.199 | glycan array binding signal (z-score) [23]: 0.331 | glycan array binding signal (z-score) [24]: -0.113

— the supplement of paper PMC8728848
